The text below walks through data of ChEMBL document CHEMBL1201862, “PubChem BioAssay data set” (2004).

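Where inhibition never reached the appropriate level, the endpoint shown equals the highest concentration tested. Otherwise, values were interpolated linearly from a five-concentration, 48-hour dose response in 96-well plates. The concentration for 50% growth inhibition is given as GI50.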 Active and inactive are the calls of the source. Rule as the data show it: active = GI50 up to about 1.1 µM and inactive = higher.

The test relates to NCI-H322M. The experiment in a line: inhibition of tumour cell growth, NCI panel, 48 h.
`C=C(/C=C/C=C(/CCC=C(C)C)COC(C)=O)[C@@H]1CC[C@]2([C@H](CCCO)/C(=C(/C)C=O)CC[C@]2(C)O)[C@@H]1O`: the GI50 was inactive: 17.5 µM.

As to `c1nnc(NCNc2nncs2)s1`, the GI50 is inactive: 31.8 µM.

Take `N=C(N)SCc1ccc(Cl)c2ccccc12.O=[N+]([O-])c1ccc(O)c([N+](=O)[O-])c1`: the GI50 was inactive: 14.5 µM.

For the compound `S=C(S)NCCCn1ccnc1`, the GI50 is inactive: > 100 µM.

Take `Cc1ccc(S(=O)(=O)N2CCC(C(=O)O)(c3ccccc3)CC2)cc1`: the GI50 is inactive: > 100 µM.

Take `c1ccc2c(c1)nnn2CN1CCOCC1`: the GI50 was inactive: > 100 µM.

For `COc1ccccc1/C=C/c1ccnc2ccccc12`, the GI50 was inactive: 18.4 µM.

As for `COc1cccc(/C=C/c2ccnc3ccccc23)c1OC`, the GI50 was inactive: > 10 µM.

For `Cc1ccc(C)c2c1C/C(=C\c1ccccc1C(=O)O)C2=O`, the GI50 is inactive: > 100 µM.

With `COc1cc(O)ccc1C(=S)SC`, the GI50 was inactive: 49.4 µM.

In the case of `Cc1ccc(NC(=O)OCC(COc2ccc(Cl)cc2)OC(=O)Nc2ccc(C)cc2)cc1` (centres undefined), the GI50 is inactive: 26.8 µM.

`Cc1cc(S(=O)(=O)/N=C2\NCCN2Cc2ccccc2)c(S)cc1Cl`: the GI50 was inactive: > 100 µM.

On to `CC1OC(=O)C(O)=C1O` (centres undefined), for which the GI50 was inactive: > 100 µM.

Consider `CCOC(=O)/C(C(=O)c1ccc([N+](=O)[O-])cc1)=C(\NS(=O)(=O)c1cc(C)c(Cl)cc1[S-])[n+]1ccc(N(C)C)cc1`, for which the GI50 is inactive: 10.9 µM.

With `CCCCC1CC(c2ccc(Cl)cc2)=NO1` (centres undefined), the GI50 is inactive: > 100 µM.

For `O=C1C(=Cc2cccs2)C(=O)N(CCc2ccccc2)S(=O)(=O)N1CCc1ccccc1`, the GI50 is inactive: > 50 µM.

`CCCCCCC(O)CC[C@H]1CCC[C@@H](C)N1` (some centres undefined): the GI50 was inactive: > 31.6 µM.

Turning to `COc1nncc2[nH]c(-c3ccccc3)cc12`, the GI50 is inactive: > 100 µM.

For `Nc1nc(Cl)cc(NCC2(CO)CCC2)n1`, the GI50 is inactive: > 100 µM.

`Clc1ccc2oc(CCC3CCCCC3)nc2c1`: the GI50 is inactive: 49.5 µM.

In the case of `CSC1C(=O)Nc2ccc3ccccc3c21` (centres undefined), the GI50 is inactive: > 100 µM.

For the compound `NC1CCCCC1.O=C(O)C1(P(=O)(O)O)CC1`, the GI50 is inactive: 54.6 µM.

Consider `Cc1sc2nc(-c3ccc([N+](=O)[O-])cc3)c(/C=N/N=C(N)N)n2c1C`, for which the GI50 is inactive: 1.42 µM.

On to `O=C1c2ccccc2C(=O)c2c1ccc1conc21`, for which the GI50 was inactive: 12 µM.

As to `CCCCCC(CO)C(O)(C(F)(F)F)C(F)(F)F` (centres undefined), the GI50 is inactive: > 10 µM.

Regarding `COC(=O)CC1CC2(C(=O)OC)c3[nH]c4ccccc4c3CCN2C1=O` (centres undefined), the GI50 is inactive: > 100 µM.

As for `O=C(c1ccccc1)N1C2CCC1C(C(F)(F)F)=C2C(F)(F)F`, the GI50 was inactive: > 100 µM.

In the case of `Oc1ccc(Nc2nc(Cl)c3nc[nH]c3n2)cc1`, the GI50 was inactive: > 100 µM.

Turning to `CC1C(=O)C(C)C(c2ccco2)N(N=O)C1c1ccco1` (centres undefined), the GI50 is inactive: > 100 µM.

Consider `CCOc1ccccc1N1C(=O)C(=O)C(c2nc3ccccc3o2)/C(=N\N)C1=O` (centres undefined), for which the GI50 was inactive: 50 µM.

As for `OCCN(CCO)c1cccc(N(CCO)CCO)n1`, the GI50 was inactive: > 100 µM.

With `CN(CC(=O)N1CC(CCl)c2ccc([N+](=O)[O-])cc21)CC(=O)N1CC(CCl)c2ccc([N+](=O)[O-])cc21` (centres undefined), the GI50 was inactive: > 100 µM.

`Nc1ccc(I)cn1`: the GI50 is inactive: > 100 µM.

Consider `CC1c2cc(c3c(c2O)CN([C@@H](C)C2CCCCC2)CO3)C(C)c2cc(c3c(c2O)CN([C@@H](C)C2CCCCC2)CO3)C(C)c2cc(c3c(c2O)CN([C@@H](C)C2CCCCC2)CO3)C(C)c2cc1c1c(c2O)CN([C@@H](C)C2CCCCC2)CO1` (some centres undefined), for which the GI50 was inactive: 1.42 µM.

`CS/C(=N/C(=O)c1ccccc1)SCCS/C(=N\C(=O)c1ccccc1)SC`: the GI50 was inactive: > 100 µM.

On to `COC(=O)c1cnn2c1n[n+]([O-])c1ccccc12`, for which the GI50 is inactive: > 100 µM.

In the case of `C[C@@H]1Nc2cc(NC(=O)OCCF)nc(N)c2N=C1c1ccccc1`, the GI50 is active: < 0.0001 µM.

Turning to `O=c1[nH]c2ccsc2c(=O)n1COCc1ccccc1`, the GI50 was inactive: > 100 µM.

As to `Cc1cc2c(C(C)C)c(O)c(O)c(/C=N/c3ccccc3)c2c(O)c1-c1c(C)cc2c(C(C)C)c(O)c(O)c(/C=N/c3ccccc3)c2c1O`, the GI50 is inactive: > 100 µM.

On to `CC(C)(C)c1cc(/C=C(\C#N)C(=O)NCCO)cc(C(C)(C)C)c1O`, for which the GI50 was inactive: 24.7 µM.

With `COC(=O)C(O)P(=O)(OC)OC` (centres undefined), the GI50 was inactive: > 100 µM.

For `O[C@@H]1C[C@H](Cl)c2c(Cl)sc(Cl)c21`, the GI50 is inactive: > 100 µM.

As to `CN(C)/C=N/S(=O)(=O)c1nn2c(C=O)c(-c3ccc([N+](=O)[O-])cc3)nc2s1`, the GI50 was inactive: 20.7 µM.

On to `O=C(Nc1ccccc1)N1C(c2ccccc2)=N[C@@H](c2ccccc2)[C@@H]1c1ccccc1`, for which the GI50 is inactive: 27.5 µM.

Consider `O=C(Cc1ccccc1)NN1C(=O)/C(=C\c2ccccc2)S/C1=N\c1ccccc1`, for which the GI50 is inactive: > 100 µM.

In the case of `NS(=O)(=O)c1nnc(NC(=O)N(c2ccccc2)c2ccccc2)s1`, the GI50 was inactive: 23.8 µM.

For `COc1ccc(C2=Nn3c(nnc3-c3ccccc3)S/C2=C\c2ccc(-c3ccc([N+](=O)[O-])cc3)o2)cc1`, the GI50 is inactive: 54.7 µM.

With `CN(C)c1ccc(C2SCC(=O)N2c2nc3cc4sc(N5C(=O)CSC5c5ccc(N(C)C)cc5)nc4cc3s2)cc1` (centres undefined), the GI50 is inactive: 60.3 µM.

As for `CCOC(=O)C(NO)C(Sc1ccccc1)c1ccc(OC)cc1` (centres undefined), the GI50 is inactive: > 100 µM.

In the case of `CSC1=N/C(=C\c2ccc(C)cc2)C(=O)N1CN1CCOCC1`, the GI50 is inactive: > 100 µM.

Consider `CCOC(=O)c1nc2ccc(C(F)(F)F)cc2nc1NCc1ccc(OC)cc1`, for which the GI50 is inactive: 50.6 µM.

Turning to `COc1ccc(/C=C2\C(=O)Nc3ccccc32)cc1OC`, the GI50 is inactive: > 100 µM.

Consider `[N-]=[N+]=Nc1c(Cl)c(Cl)nc2ccccc12`, for which the GI50 is inactive: 27.9 µM.

In the case of `C/C=C/C(O)P(=O)(OC)OC` (centres undefined), the GI50 was active: 0.601 µM.

Consider `O=C(Nc1c(Cl)cc([N+](=O)[O-])cc1Cl)C(=O)C(C1OC(=O)c2ccccc21)[N+](=O)[O-]` (centres undefined), for which the GI50 was inactive: > 100 µM.

Regarding `Cn1c(=O)c2c(nc(N/N=C3/SCC(=O)N3Cc3ccccc3)n2C)n(C)c1=O`, the GI50 was inactive: > 100 µM.

Regarding `CCOC(=O)c1c(-c2ccc(OC)cc2)ccn1C`, the GI50 was inactive: > 10 µM.

Turning to `O[C@@H]1C[C@H]2N3CC[C@@]2(c2cc4c(cc2C3)OCO4)[C@H]2O[C@@H]12`, the GI50 is inactive: > 100 µM.

Consider `CSc1cc(Cl)c(C)cc1S(=O)(=O)NC(=O)NNc1ccccn1`, for which the GI50 was inactive: > 100 µM.

Regarding `Oc1c(N2CCOCC2)cc(-c2cc(N3CCOCC3)c(O)c3ccccc23)c2ccccc12`, the GI50 was inactive: 1.91 µM.

On to `C=C1[C@@H](O)C[C@@]23CC[C@@H]4[C@@]5(C)CC[C@@H](OC(C)=O)C(C)(C)[C@@H]5C[C@@H](OC5OC(COC(C)=O)C(O)C(O)C5O)[C@@]4(C)C2=CC[C@H]3[C@H]1C` (some centres undefined), for which the GI50 was inactive: 12.7 µM.

As for `COc1ccc(C2C3=C(COC3=O)OC(C)(C)Oc3cc4c(cc32)OCO4)cc1` (centres undefined), the GI50 is inactive: 50.4 µM.

As for `Cc1ccc(NC(=O)CC2C(=O)Nc3ccccc3[S+]2[O-])cc1C` (centres undefined), the GI50 was inactive: > 100 µM.

As for `Brc1ccc2c3c1[C@H]1O[C@H]1c1cccc(c1-3)[C@@H]1O[C@H]21`, the GI50 was inactive: 15.6 µM.

As for `CC(C)(C)c1cc(OCc2nnc(S)n2N)c(Cl)cc1OCc1nnc(S)n1N`, the GI50 was inactive: 45 µM.

Turning to `COc1ccc(P2(=S)OCCOP(=S)(c3ccc(OC)cc3)S2)cc1` (centres undefined), the GI50 is inactive: 5.93 µM.

As to `C=CC(=O)C#Cc1cnc(OC)nc1OC`, the GI50 is inactive: > 100 µM.

For `CC1(C)OC(=O)N(c2ccccc2)C12C=Cc1cc([N+](=O)[O-])ccc1O2` (centres undefined), the GI50 was inactive: 97.9 µM.

Consider `C(=N\Nc1nnc2c(n1)[nH]c1ccccc12)/c1cccnc1`, for which the GI50 is inactive: > 100 µM.

With `C=CCCC1(C)CCCNC1=S` (centres undefined), the GI50 is inactive: > 100 µM.

Turning to `Cc1n[nH]/c(=N\S(=O)(=O)c2ccc(/N=N/c3c(O)c(C(=O)O)cc4ccccc34)cc2)s1`, the GI50 was inactive: > 100 µM.

Regarding `Cc1nn(C(=O)c2ccccc2O)c2c1C(c1ccco1)SC(=N)N2` (centres undefined), the GI50 was inactive: 3.43 µM.

For the compound `COc1cccc(/C=C2\SC(=S)N(/C=C3\C(=O)Oc4ccccc4C3=O)C2=O)c1O`, the GI50 is inactive: 87.9 µM.

As for `C=C1N(C=O)C(C)(C)N(O)C1(C)C`, the GI50 is inactive: > 100 µM.

For `CO/C=C(\Br)c1ccc2c(c1)OCO2`, the GI50 was inactive: > 100 µM.

With `Cc1ccccc1/N=N/c1c(O)c(S(=O)(=O)O)cc2cc(S(=O)(=O)O)ccc12`, the GI50 was inactive: > 100 µM.

For the compound `CCCCCCCCCCCCCCCCOP(=O)(O)OP(=O)(O)OCC1OC(n2ccc(N)nc2=O)C(O)C1O` (centres undefined), the GI50 is inactive: > 100 µM.

As for `Clc1ccc(Cc2nc3cc(Cl)c(Cl)cc3n2CC2CCCN3CCCCC23)cc1Cl` (centres undefined), the GI50 is inactive: 4.4 µM.

Turning to `COc1ccc(/C=C2\CN(C)CC3=C2OC(N)=C(C#N)C3c2ccc(OC)cc2)cc1` (centres undefined), the GI50 was inactive: 50.9 µM.

On to `CN1C/C(=C\c2cccs2)C2=NN(c3ccccc3)C(c3cccs3)C2C1` (centres undefined), for which the GI50 is inactive: 7.06 µM.

Take `NC(=O)c1ncn2c1NC(=O)CC2`: the GI50 was inactive: > 100 µM.

Take `O=C(O)c1ccccc1C(=O)Nc1cc2c(cc1Br)-c1ccccc1C2=O`: the GI50 is inactive: > 100 µM.

Regarding `C/C(=C\C(=N\NC(=N)N)c1ccccc1)c1ccccc1`, the GI50 is active: 0.321 µM.

Regarding `O=S(=O)(N/C(=N\O)Nc1ccc(Cl)cc1)c1cc(S(=O)(=O)c2ccccc2)cs1`, the GI50 was inactive: 15.5 µM.
